Reference: PubChem BioAssay (NCATS)
Some of the results follow. Shown are side measurements of this screen, not its main read-out; they come without a call. Most of these compounds were active or inconclusive in the main read-out, so they are no random draw. The note in brackets gives the kind of curve behind each potency; many fits are weak.

Columns and labels:
[1] = Cell-based coincidence reporter assay to measure PMP22 gene transcription in S16 Pmp22-F2sN cells - Confirmatory screen (AID 1508646); settings: S16 Schwann cells Pmp22-F2sN, dual luciferase, 24 h
In short: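 Coincidence reporter read as sequential FLuc then NLuc luminescence (Nano-Glo Dual-Luciferase, 10 min each). Engineered S16 Pmp22-F2sN Schwann cells, 500-1,000 per well in DMEM/10% FBS, were exposed to compounds for 24 h, 37C.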

[2] = qHTS Assay for Lipid Storage Modulators (AID 1519); settings: Drosophila S3 cells, BODIPY lipid droplet/cell ratio, laser cytometry, cells loaded with oleic acid
In short: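 Cells seeded at 5,000 per well were treated with compounds over a concentration series and loaded with oleic acid (400 uM, as added). Lipid droplet fluorescence (488 nm excitation, 500-530 nm channel) was read by laser-scanning cytometry and normalized to 20 uM Triacsin C.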

[3] = measured here: FLuc reporter channel
[4] = measured here: NLuc reporter channel
Tags tell the direction and shape of the fitted curve.

CCc1ccc(-c2nc(CN3CCC(C(=O)NCCc4ccc(Cl)cc4)CC3)c(C)o2)cc1
AC50 [1, 3]: 24.3 µM [falling, partial curve]
AC50 [1, 4]: 30.6 µM [falling, partial curve]

O=c1c(-c2ccc(F)cc2)nc2cnc(Nc3ccccc3)nc2n1C[C@H]1CCCO1
AC50 ([2]; measured here: lipid (BODIPY) channel AC50): 5.01 µM [falling, full curve]

CCCNC(=O)c1cnn2c(C)c(Cc3c(C)cc(C)cc3C)c(C)nc12
AC50 [1, 3]: 27.3 µM [falling, partial curve]
AC50 [1, 4]: 30.6 µM [falling, partial curve]

CCN(CC)CCOC(=O)c1ccc(NC(=O)Cn2ncc3c([nH]c4ccc(C)cc43)c2=O)cc1
AC50 [1, 3]: 12.2 µM [falling, full curve]
AC50 [1, 4]: 13.7 µM [falling, full curve]

COc1ccc(CCNC(=O)c2cc(=O)c3c(C)cc(C)cc3o2)cc1OC
AC50 [1, 3]: 15.3 µM [falling, partial curve, poor fit]
AC50 [1, 4]: 6.85 µM [falling, full curve]

Cc1ccc(C)c(N2CCN(CCCNC(=O)Cn3c(-c4cccs4)cc4ccccc43)CC2)c1
AC50 [1, 3]: 24.3 µM [falling, partial curve]
AC50 [1, 4]: 27.3 µM [falling, partial curve]

CCN(CC)c1cc(C)c2cc(NC(=O)/C=C/c3ccccc3Cl)ccc2n1
AC50 [1, 3]: 24.3 µM [falling, partial curve]
AC50 [1, 4]: 24.3 µM [falling, partial curve]

CN(C)CCC(c1ccc(Br)cc1)c1ccccn1 (stereo not given)
max response ([2]; measured here: cell count channel max response): 51.6%
max response ([2]; measured here: lipid channel max response): 50.8%
